Some of the results follow. The main result of the screen is listed elsewhere. These columns were measured beside it and carry no call.

14 molecules from PubChem BioAssay AID2202238 (Ras Initiative Chemistry Research Team, Frederick National …, 2025) can be followed below.

The target in the experiment is GTPase KRas (Homo sapiens) (UniProt P01116). Briefly: Covalent labelling of cysteine mutants by fragments, read by mass spectrometry (AID 2202238). To be noted: KRAS G12D cysteine mutants, disulfide tethering, MALDI-TOF labeling, stronger effect = higher value, fragment at 500 µM. On the set-up: protein at 5 µM with 500 µM competing thiol for 1.5 h.
Sequence of UniProt P01116 (P01116 whole entry, looked up, the tested form may be a part): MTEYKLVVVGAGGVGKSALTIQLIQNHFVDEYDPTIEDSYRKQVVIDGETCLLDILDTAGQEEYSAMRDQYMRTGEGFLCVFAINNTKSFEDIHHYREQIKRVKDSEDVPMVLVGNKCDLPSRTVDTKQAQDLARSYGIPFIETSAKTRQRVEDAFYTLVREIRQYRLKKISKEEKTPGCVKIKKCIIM
The mark [1] stands for this setting: measured here: G75C mutant labeling.
Where [2] appears, read: measured here: H94C mutant labeling.
[3] abbreviates: measured here: I36C mutant labeling.
Where [4] appears, read: measured here: L120C mutant labeling.
Setting [5] is: measured here: M67C mutant labeling.
The mark [6] stands for this setting: measured here: M72C mutant labeling.
[7] abbreviates: measured here: N86C mutant labeling.
[8] abbreviates: measured here: P121C mutant labeling.
The mark [9] stands for this setting: measured here: S122C mutant labeling.
Where [10] appears, read: measured here: S136C mutant labeling.
[11] abbreviates: measured here: G60C mutant labeling.
Where [12] appears, read: measured here: N26C mutant labeling.

In the case of `O=C(CCS)N1CCC(n2c(=O)[nH]c3cccnc32)CC1`, the percent labeling is, setting by setting: under setting [1], 17.8%; under setting [2], 38.3%; under setting [3], 40.8%; under setting [4], 36.4%; under setting [5], 59.4%; under setting [6], 35%. The percent labeling was 21% under setting [7], 34.9% under setting [8], 35.6% under setting [9] and 61.5% under setting [10].
Consider `O=C(CCS)Nc1ccc(-n2ccccc2=O)cc1F`, for which the percent labeling by setting is: under setting [1], 19.3%; under setting [2], 38.6%; under setting [3], 43.1%; under setting [4], 34.7%; under setting [5], 40.2%; under setting [6], 43.7%. The percent labeling reads like this: under setting [7], 41.4%; under setting [8], 37.2%; under setting [9], 42.7%; under setting [10], 54.8%.
As to `CC1(C)CN(C(=O)CCS)CCN(C(=O)OC(C)(C)C)C1`, the percent labeling runs as follows: under setting [1], 21%; under setting [2], 38.2%; under setting [3], 39%; under setting [4], 31.2%; under setting [5], 44.7%; under setting [6], 33.7%. Moreover, the percent labeling under setting [7] came to 34.5%, the percent labeling under setting [8] turned out to be 31.4%, the percent labeling under setting [9] amounted to 34.8% and the percent labeling under setting [10] is 61.2%.
Turning to `CC1CCc2cc(F)cc3c(=O)c(C(=O)NCCS)cn1c23` (stereo not given), the percent labeling by setting is: under setting [11], 33.6%; under setting [1], 36.5%; under setting [2], 27.3%; under setting [3], 17.8%; under setting [4], 19.2%; under setting [5], 20.6%. Further, the percent labeling is, setting by setting: under setting [6], 61%; under setting [12], 37%; under setting [7], 12.3%; under setting [8], 22.1%; under setting [9], 10.9%; under setting [10], 32.7%.
In the case of `O=C(CCS)NC1CCC(C(F)(F)F)CC1` (stereo not given), the percent labeling is 13.5% under setting [1]; 33.6% under setting [2]; 44.9% under setting [3]; 27.6% under setting [4]; 27.7% under setting [5]; 34.6% under setting [6]. The percent labeling runs as follows: under setting [7], 33.4%; under setting [8], 31.6%; under setting [9], 34.4%; under setting [10], 52.3%.
The molecule `CCc1nc(COc2ccc(C(=O)NCCS)cc2)no1` displayed a percent labeling under setting [11] of 23.7%; a percent labeling under setting [1] of 12.2%; a percent labeling under setting [2] of 22.9%; a percent labeling under setting [3] of 19.7%; a percent labeling under setting [4] of 23.7%; a percent labeling under setting [5] of 18.1%. Moreover, the percent labeling by setting is: under setting [6], 31.3%; under setting [12], 33%; under setting [7], 20.4%; under setting [8], 17.6%; under setting [9], 16.7%; under setting [10], 24.1%.
For the molecule `O=C(CCS)Nc1ccc(Oc2ccc(F)cc2)c2ccncc12`, the percent labeling is, setting by setting: under setting [1], 18.2%; under setting [2], 9.8%; under setting [3], 25.9%; under setting [4], 11.4%; under setting [5], 13.2%; under setting [6], 25.7%. Besides, the percent labeling by setting is: under setting [7], 21.2%; under setting [8], 11.2%; under setting [9], 3.2%; under setting [10], 23.2%.
On to `O=C(CCS)NCc1cc(=O)[nH]c(C2CC2)n1`, for which the percent labeling under setting [1] stood at 10.1%; the percent labeling under setting [2] amounted to 25.2%; the percent labeling under setting [3] was found to be 42.7%; the percent labeling under setting [4] stood at 29.4%; the percent labeling under setting [5] amounted to 37.1%; the percent labeling under setting [6] worked out at 14.6%. Also, the percent labeling is, setting by setting: under setting [7], 32.1%; under setting [8], 29.8%; under setting [9], 31%; under setting [10], 54.6%.
Consider `Cc1nc(NC(=O)CCS)sc1Cc1ccccc1`, for which the percent labeling runs as follows: under setting [1], 13.7%; under setting [2], 15.3%; under setting [3], 20.1%; under setting [4], 25%; under setting [5], 19.8%; under setting [6], 32.5%. For the same molecule, the percent labeling amounted to 17.7% under setting [7], 11.3% under setting [8], 8.2% under setting [9] and 26.1% under setting [10].
Consider `O=C(CCS)Nc1cnn(-c2ccccc2)c1`, for which the percent labeling runs as follows: under setting [1], 10.9%; under setting [2], 17.3%; under setting [3], 22.3%; under setting [4], 14.3%; under setting [5], 18.9%; under setting [6], 47.6%. The percent labeling under setting [7] was determined as 9.1%, the percent labeling under setting [8] amounted to 16%, the percent labeling under setting [9] came to 14.6% and the percent labeling under setting [10] stood at 34.3%.
Consider `O=C1NC(=O)C2(CCC(C(=O)NCCS)CC2)N1` (stereo not given), for which the percent labeling runs as follows: under setting [11], 37.2%; under setting [1], 14.1%; under setting [2], 42.3%; under setting [3], 31%; under setting [4], 37.1%; under setting [5], 33.5%. Besides, the percent labeling is 25.1% under setting [6]; 44.8% under setting [12]; 30.2% under setting [7]; 33.7% under setting [8]; 36.3% under setting [9]; 49.5% under setting [10].
Take `O=C(CCS)Nc1ccnn1Cc1ccc(Cl)cc1`: the percent labeling under setting [1] worked out at 26.3%; the percent labeling under setting [2] was 36.7%; the percent labeling under setting [3] amounted to 36.6%; the percent labeling under setting [4] is 21.5%; the percent labeling under setting [5] was found to be 34.8%; the percent labeling under setting [6] was determined as 52.2%. This molecule had a percent labeling under setting [7] of 27%, a percent labeling under setting [8] of 27.4%, a percent labeling under setting [9] of 27.3% and a percent labeling under setting [10] of 39.7%.
As for `COCc1nc2sc(C(=O)NCCS)c(C)c2c(=O)[nH]1`, the percent labeling was 26.9% under setting [11]; 17.5% under setting [1]; 22.2% under setting [2]; 19.7% under setting [3]; 16.1% under setting [4]; 22.9% under setting [5]. This molecule gave a percent labeling under setting [6] of 48.2%; a percent labeling under setting [12] of 44.6%; a percent labeling under setting [7] of 22.5%; a percent labeling under setting [8] of 16.5%; a percent labeling under setting [9] of 14.8%; a percent labeling under setting [10] of 33.8%.
With `O=C(NCCS)C1CCCN(c2ncnc3sccc23)C1` (stereo not given), the percent labeling turned out to be 44.3% under setting [11]; 19.6% under setting [1]; 26.8% under setting [2]; 22.8% under setting [3]; 17.6% under setting [4]; 41.6% under setting [5]. Further, the percent labeling is 27.2% under setting [6]; 40.5% under setting [12]; 17.9% under setting [7]; 20.5% under setting [8]; 15.2% under setting [9]; 35.8% under setting [10].
